The values below come from publication PMC12136788.

The chains are these.
B1: chr1:152579660:152579936:-|CDS|ENSG00000163202|control|control|control (ssRNA)
RNA: GGGAGUUCUACAGUCCGACGAUCGUACAGUGUCUGCCUCCAGCUUCCUCUGGCUGUGCCCCAAGCUCUGGGGGCUGUGGCCCUAGCUCCGAGGGCGGCUGCUUCCUGAACCACCACAGGCGCCACCACCGAUGCCGGCGCCAGCAACAGAGGAUUGAGCAUCA
B2: chr17:35724233:35724342:+|3pUTR|ENSG00000006125|msi1_unk|FALSE|overlapping (ssRNA)
RNA: GGGAGUUCUACAGUCCGACGAUCUCCUGGAGGCAGAGAUGCAGUUACCUACCCUAGCUUUUGAUGGGUUCUCUUACCUGUAGUAGCCUUAUCCCUGGUCAUUUGGAUUUUCAGUUUGCUUUUUUCUUUUUUUCCCCUCCAAACCAACAGAGGAUUGAGCAUCA
B3: chr19:10391132:10391550:-|three_prime_utr|ENSG00000105401|control|control|control (ssRNA)
RNA: GGGAGUUCUACAGUCCGACGAUCCCCCAGCUACCACCGCCACCUGCUUCCAGGCCCCUAUGUGCCCCUUUUCAGAAAACAGAUAGAUGCCAUCUCGCCCGCUCCUGACUUCCUCUACUUGCGCUGCUCGGCCCAGCCUGGGGGCAACAGAGGAUUGAGCAUCA
B4: chr16:2457226:2457327:+|3pUTR|ENSG00000162063|unk|total|mutant (ssRNA)
RNA: GGGAGUUCUACAGUCCGACGAUCCAAGCCAUCAGAAUGUUGAAAUGAGGGUGAAGAGCUCAGAUCCCUCUCUUUGGAAAGUUCCGCCUGGAAGCAGUUGGCCACACUGUGUGGAGGGCACCUCUCUGUCCCUUCCGUGUCUCACAACAGAGGAUUGAGCAUCA
B5: chr1:212686416:212686790:-|three_prime_utr|ENSG00000123685|control|control|control (ssRNA)
RNA: GGGAGUUCUACAGUCCGACGAUCUUGUGCAGAUCCAGCAUGGAGGCCACCCUCAGGAGUGACUUCUCAUCCACCCUGGCAGCUAGUAGGUUCUGCUGUUAUGCAGAGCCAUUUCCUCUAGAAUUUGGAUAAUAAAGAUGCUUACAACAGAGGAUUGAGCAUCA
B6: chr11:75587191:75587292:-|CDS|ENSG00000171533|unk|FALSE|unique (ssRNA)
RNA: GGGAGUUCUACAGUCCGACGAUCACAGCCUCCAAAGAAUCAAGGUCGUAUAGUCCCUGAACCUCUGAAGAAUCAAGUUCCUAUAGUCCCAGUGCCUCUGAAGGAUCAAGAUCCUCUGGUGCCAGUACCAGCAAAGGACCAAGGCAACAGAGGAUUGAGCAUCA
B7: chr17:76725537:76725647:-|CDS|ENSG00000070495|unk|total|mutant (ssRNA)
RNA: GGGAGUUCUACAGUCCGACGAUCUACUCAGUGAAGAUGAAGAUGAAAUACUACAUCGAGUACAUGGAGAGCACUCGAGAUGACCGUCCCCUUUACAUCUUUGACAGCAGCUAUGGUGAACACCCUAAAAGAAGGAAACUUUUGCAACAGAGGAUUGAGCAUCA
B8: ENSG00000070961:be:win_151|CDS|ENSG00000070961|bound_else_gene|NA|bound_elsewhere_windowed (ssRNA)
RNA: GGGAGUUCUACAGUCCGACGAUCGAAAGCUAUGGAGAUGUCUAUGGAAUUUGCACCAAAUUGAAAACAUCUCCCAAUGAAGGUUUAAGUGGAAACCCUGCAGAUUUAGAAAGAAGAGAAGCAGUGUUUGGAAAGAAUUUUAUACAACAGAGGAUUGAGCAUCA
B9: chr12:67313014:67313056:+|3pUTR|ENSG00000111530|msi1_unk|total|mutant (ssRNA)
RNA: GGGAGUUCUACAGUCCGACGAUCUUUUUGCCGCAUUUAUUUCAGAAAUGUGUAUUUCCAUAAUCCAGAGGUUGUAAAACCACCCGUGUUUCCGUGGUUACAGCAACAUUUGAAAUGGAAACUAAAAGUCCGGAUUUUAUGGAGCAACAGAGGAUUGAGCAUCA
B10: chr1:112912765:112912828:-|3pUTR|ENSG00000155380|msi1_unk|FALSE|overlapping (ssRNA)
RNA: GGGAGUUCUACAGUCCGACGAUCUUAAGGUUUGCAAAUUAAAAAGGGCCAGAAAAAUUUGGCACCAGGCAAACGAAUAAAGAUAGGAUUGGGAAAGAAGUUGCUAAGUGUGCUUAGUUUUAAUAAGUAAUUCCUUCUCUUUUUCAACAGAGGAUUGAGCAUCA
B11: chrX:101412715:101412817:+|CDS|ENSG00000126945|unk|total|mutant (ssRNA)
RNA: GGGAGUUCUACAGUCCGACGAUCGGGUAUGGAGGCUAUGAUGACUAUGGUGGCUAUAAUGAUGGAUAUGGCUUUGGGUCUGACCGAUUUGGAAGAGACCUCAAUUACUGUUUUUCAGGAAUGUCUGAUCACCGAUACGGAGAUCAACAGAGGAUUGAGCAUCA
B12: chrX:130625084:130625185:-|3pUTR|ENSG00000165675|msi1|total|mutant (ssRNA)
RNA: GGGAGUUCUACAGUCCGACGAUCAGUUCCUUUGAAUUUGUCAGUUCAUUCCUGGAAAAUCUUUUGAGUUAAAAUAAGGAUCCCCGGACAGCACCUCGAACUACAGGCCCUAAAGAGAAAUUGCCUCAAACCACAAGUGCUGUACAACAGAGGAUUGAGCAUCA
B13: chr8:80500255:80500365:+|CDS|ENSG00000205189|unk|total|mutant (ssRNA)
RNA: GGGAGUUCUACAGUCCGACGAUCGAAAAACCAAACUACAAAAAGAUUUAUUUAUAAUAUUCCACCUAAUAAUGAAACGAAUUCCGAAGAUUGCUCAGUAAUGCAGCCACCUGUUGCCUAUCCAGAAGAAAAUACACUACUCAUCAACAGAGGAUUGAGCAUCA
B14: chrX:40073105:40073212:-|CDS|ENSG00000183337|unk|FALSE|unique (ssRNA)
RNA: GGGAGUUCUACAGUCCGACGAUCCUACCAAGAUGCCCUGGGGUUGGGCAUGGUGCAUCCCAUGUUGAUACCACACACGCCCAUAGAGAUUACUAAAGAGGAGAAACCAGAGAGGAGAUCCCGGUCCCAUGAGAGAGCCCGUUACAACAGAGGAUUGAGCAUCA
B15: chr10:99876058:99876159:-|3pUTR|ENSG00000107554|msi1|total|mutant (ssRNA)
RNA: GGGAGUUCUACAGUCCGACGAUCUUGAGCCUAAUGGAAGACUGGAUGUCUUUCUUCUUCAUCCAAGCACCCUAAUGACUGUUCCGUUACAUCCACCGAUGCAGACAACAUAACACCUGUGACUUACUUGAAUUGGGAUAAGCCCAACAGAGGAUUGAGCAUCA
B16: chr4:127885990:127886091:+|CDS|ENSG00000142731|msi1|total|mutant (ssRNA)
RNA: GGGAGUUCUACAGUCCGACGAUCAUUACUUAUCGGGAGACCACCCUUCGACACUGACACAGUCAAGAACACAUUAAAUAAAGCCGUAUUGGCAGAUUAUGAAAUGCCAUCUUUUUUGUCAACCGAGGCCAAGGACCUUAUUCACAACAGAGGAUUGAGCAUCA
B17: chr18:9257137:9257239:+|CDS|ENSG00000101745|unk|FALSE|bound_elsewhere (ssRNA)
RNA: GGGAGUUCUACAGUCCGACGAUCUCUUAGGUCAUCUUCUGUAGAAGAUGUUAAACUAAUUAUAAGCGAGGGGAGACCUACCAUAGAAGUUCGAAGAUGUAGCAUGCCUUCUGUCAUUUGUGAACAUACCAAACAAUUCCAAACCAACAGAGGAUUGAGCAUCA
B18: chr12:122508217:122508450:-|three_prime_utr|ENSG00000111011|control|control|control (ssRNA)
RNA: GGGAGUUCUACAGUCCGACGAUCAGGUUCUGUUCUCAAUGUUGCUGCCCUGUUGGCAUCAGGAACACAAGUAACACCUCAGAUAGCCAUGGCAGCUCAGAUGGCAGCCCUGCAAGCUAAAGCUUUGGCAGAGACAGGAAUAGCCAACAGAGGAUUGAGCAUCA
B19: ENSG00000124766:be:win_3651|3pUTR|ENSG00000124766|bound_else_gene|NA|bound_elsewhere_windowed (ssRNA)
RNA: GGGAGUUCUACAGUCCGACGAUCUCGCUAAAUAUAAUUGUUUUAGUCUUAUGGCAUGAUGAUAGCAUAUGUGUUCAGGUUUAUAGCUGUUGUGUUUAAAAAUUGAAAAAAGUGGAAAACAUCUUUGUACAUUUAAGUCUGUAUCAACAGAGGAUUGAGCAUCA
B20: chr15:58589816:58589917:-|3pUTR|ENSG00000137845|unk|total|mutant (ssRNA)
RNA: GGGAGUUCUACAGUCCGACGAUCAUUCAUUUGCUGAAGAGCUGGCUUGUACUUUGGCAGGUGUCAUACUUGGUUAUUCUCCUCCGGAUAUUGGCCCAACAAUCUGGGAGUUGUGAAAGGCGCUUCGCUUUUCAGACCUGGGCGCAACAGAGGAUUGAGCAUCA
B21: ENSG00000013306:stop:overlap|stop_codon|ENSG00000013306|stop_codon|NA|stop_codon (ssRNA)
RNA: GGGAGUUCUACAGUCCGACGAUCGUCCCCACCUCGGCCCAAACCCAGUCAGUCCCAGCUCCCAGCCCCAACCUCUGCCAGCCUAGGGAUAGGGGGGUGUUCUAGGUCCCCAGACCUGGGACAGCAGCCCUGUACUGGUUCAACCAACAGAGGAUUGAGCAUCA
B22: ENSG00000138760:stop:overlap|stop_codon|ENSG00000138760|stop_codon|NA|stop_codon (ssRNA)
RNA: GGGAGUUCUACAGUCCGACGAUCACCAAUCUGUUGGAGACCCUAAAAUUGACUUAAUUAGAACAUUAAAUAUUCCUGUAUUGUAGGAGAGAGUGGAUGGAGGUGCUUUGGAGGGGAUGCUGCUGUCUUAAUAUACCUCUGCUCCAACAGAGGAUUGAGCAUCA

This is one part of the list.

This assay addresses T1, UNK ZnF1-6 (called full-length) (human, UniProt Q9C0B0 30-357).
T1 sequence: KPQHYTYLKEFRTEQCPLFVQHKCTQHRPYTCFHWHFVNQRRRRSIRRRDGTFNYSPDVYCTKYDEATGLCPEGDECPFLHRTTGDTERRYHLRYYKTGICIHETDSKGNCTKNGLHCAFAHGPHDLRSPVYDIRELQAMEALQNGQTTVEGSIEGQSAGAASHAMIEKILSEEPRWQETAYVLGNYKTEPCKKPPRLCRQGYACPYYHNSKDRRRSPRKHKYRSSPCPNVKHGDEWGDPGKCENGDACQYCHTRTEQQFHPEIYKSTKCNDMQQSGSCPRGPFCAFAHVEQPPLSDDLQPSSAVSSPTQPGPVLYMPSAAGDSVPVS
As to the kind of experiment: nsRBNS (natural sequence RNA bind-n-seq); RBNS binding buffer (assumed for nsRBNS): 25 mM Tris pH 7.5, 150 mM KCl, 3 mM MgCl2, 0.01% Triton X-100, 500 ug/ml BSA, 20 U/ml SUPERase-In, 4 C; UNK is unkempt and MSI1 is Musashi-1; names of the RNAs are library labels; protein concentration not given here; high values mean tight binding.
B1 registered a binding signal of 0.89 enrichment R.

Turning to B2, the binding signal is 1.69 enrichment R.

As for B3, the binding signal is 1.18 enrichment R.

Molecule B4 gave a binding signal of 0.494 enrichment R.

The molecule B5 returned a binding signal of 0.63 enrichment R.

Regarding B6, the binding signal turned out to be 0.536 enrichment R.

B7 displayed a binding signal of 0.508 enrichment R.

Turning to B8, the binding signal was 0.536 enrichment R.

Consider B9, for which the binding signal was 0.291 enrichment R.

B10 had a binding signal of 0.903 enrichment R.

Take B11: the binding signal was determined as 0.671 enrichment R.

With B12, the binding signal was determined as 0.496 enrichment R.

For the molecule B13, the binding signal came out at 1.54 enrichment R.

B14 displayed a binding signal of 1.19 enrichment R.

Turning to B15, the binding signal stood at 0.501 enrichment R.

Take B16: the binding signal came to 0.501 enrichment R.

In turn, B17 returned a binding signal of 1.06 enrichment R.

The molecule B18 showed a binding signal of 0.573 enrichment R.

In the case of B19, the binding signal was found to be 0.871 enrichment R.

As to B20, the binding signal came to 0.6 enrichment R.

Molecule B21 gave a binding signal of 0.737 enrichment R.

The molecule B22 had a binding signal of 0.363 enrichment R.
